Laboratory results reported in PubChem BioAssay AID1508624 (National Center for Advancing Translational Sciences (NCATS), 2021).
Among all 48,000 compounds or so, about 120 (0.25%) were called active. Inconclusive means that the source gave no clear call. Such entries were picked first, then a sample of the others. Calls come from the whole dose curve; as a rule, active = well fitted activation curve with a large enough effect; inconclusive = small, poorly fitted or top-dose-only effect, or another doubt; inactive = no such curve, though single readings can be large or run the other way. Potencies of inconclusive entries are doubtful fits and often do not repeat.
Potency is the fitted concentration of half-maximal effect; tags give direction and shape of the fitted curve.

Assay: Primary qHTS for Identification of Small Molecule Activators of Huntingtin-Antisense Promoter Activity; note: nearly all actives have a fitted effect of over 55% in size
Details: HEK293 HTT-AS promoter firefly luciferase reporter (activity 0% = vehicle and -100% = no light), 24 h; activity change, positive = activation: at 57.5 µM (top of the series)
From the text: Assay Provider: Russell L. Margolis M.D.
Department Neurology, Johns Hopkins University School of Medicine, Baltimore, MD
Huntington's Disease (HD) is a neurodegenerative disorder caused by a CAG repeat expansion in exon 1 of huntingtin (HTT). While there are currently no disease-modifying treatments for HD, recent efforts have focused on development of nucleotide-based therapeutics to lower HTT expression. As an alternative to siRNA or oligonucleotide methods, we hypothesized that suppression of HTT expression might be accomplished by small molecules that either (1) directly decrease HTT expression by suppressing HTT promoter activity or (2) indirectly decrease HTT expression by increasing the promoter activity of HTT-AS, the gene antisense to HTT that appears to inhibit expression of HTT.
We developed and employed a high throughput screen for modifiers of HTT and HTT-AS promoter activity using luminescent reporter HEK293 cells; of the 52,041 compounds tested, we identified 898 replicable hits. We used a rigorous stepwise approach to assess compound toxicity and the capacity of the compounds to specifically lower huntingtin protein in 5 different cell lines, including HEK293 cells, HD lymphoblastoid cells, mouse primary neurons, HD iPSCs differentiated into cortical-like neurons, and HD hESCs. We found no compounds which were able to lower huntingtin without lowering cell viability in all assays, though the potential efficacy of a few compounds at non-toxic doses could not be excluded.
SEQUENCE No. (1, 2, 3, etc.); […] (e.g., Cells, Incubation, Reagent, etc.); VALUE and DESCRIPTION.
1; Reagent; 4 uL; 2,500 Hek293 luciferase reporter cells per wells
3; Compound; 23 nL; Control inhibitor / compound library
5; Reagent; 2.5 uL; Firefly Luc reagent; Dual-Glo Luciferase Reporter Assay System (Promega)
6; Time; 10 min; room temperature incubation
7; Detection; Luminescence; FLuc
NOTES (numbers refer to sequence above)
1; High-throughput screening, measuring luminescence from a Hek293 luciferase reporter, was performed in 1,536 well white-walled tissue-culture treated plates. 2,500 cells were plated in 4 µL of Opti-MEM per well using a Multidrop Combi Reagent Dispenser (ThermoFisher).
2; Assay plates were cultured for 24 hours.
3; Control inhibitor (PTC124; final concentration of 50 uM) and compound library (at final concentrations of 460 nM - 57.5 uM) were added to the assay plate using the Kalypsis Pintool Robotic System equipped with 1536 pinheads.
4; Cells were then incubated for 24 hours at 37 degrees C prior to luminescence measurements.
5; In all cases, luminescence was measured using the Dual-Glo Luciferase Reporter Assay System (Promega) following the manufacturer's instructions.
6; Room temperature incubation.
7; Luminescence signal was obtained using the PerkinElmer ViewLux plate reader. Results were normalized to vehicle control (0% activity) and zero RLU (-100% activity).
For `C[C@@H]1O[C@@H](O[C@H]2C[C@@H](O)[C@]3(CO)[C@H]4[C@H](O)C[C@]5(C)[C@@H](C6=CC(=O)OC6)CC[C@]5(O)[C@@H]4CC[C@]3(O)C2)[C@H](O)[C@H](O)[C@H]1O`, the activity change, positive = activation was inconclusive: -45.5% [activator]. With `Cc1cccc(Cn2cccc(C(=O)Nc3ccc(F)cc3F)c2=O)c1` the Potency was “inactive”. For `C[C@H]([C@H](O)CCC(C)(C)O)[C@H]1CC[C@@]2(O)C3=CC(=O)[C@@H]4C[C@@H](O)[C@@H](O)C[C@]4(C)[C@@H]3CC[C@]12C`, the Potency was “inactive”. For `C=C(C)[C@H]1Cc2c(ccc3c2O[C@@H]2COc4cc(OC)c(OC)cc4[C@@H]2C3=O)O1`, the activity change, positive = activation was inconclusive: -53.7% [activator]. In the case of `O=C(O)COc1ccccc1`, the activity change, positive = activation was inconclusive: 59.4% [activator]. In the case of `Nc1c(C(=O)Nc2ccc(F)c(Cl)c2)sc2nc3c(cc12)N1CCC3CC1`, the Potency was inconclusive: 3.55 µM [activator, single point]. In the case of `Cc1cc(SCc2sc(-c3ccc(C(F)(F)F)c(F)c3)nc2C)ccc1OCC(=O)O`, the Potency was inconclusive: 8.63 µM [activator, single point]. With `N#Cc1cccc(NC(=O)c2sc3nc4c(cc3c2N)N2CCC4CC2)c1` the Potency was inconclusive: 0.891 µM [activator, partial curve, poor fit]. In the case of `N#Cc1cccc(NC(=O)CSc2nc3c(cc2C#N)N2CCC3CC2)c1`, the Potency was inconclusive: 7.94 µM [activator, partial curve]. With `CC(=O)N(C)c1cccc(-c2ccnc3c(C(=O)c4cccs4)cnn23)c1` the Potency was inconclusive: 19.3 µM [activator, partial curve]. For `CC(C)(C)NC[C@H](O)c1ccc(O)cc1Cl`, the Potency was “inactive”. With `Cc1ccccc1-n1c(/C=C/c2ccc(O)cc2)nc2ccccc2c1=O` the Potency was “inactive”. For `O=C(N[C@H]1CN2CCC1CC2)c1ccc(Cl)cc1`, the Potency was inconclusive: 4.85 µM [activator, full curve, poor fit]. For `COc1ccc(C)cc1NC(=O)c1cccn(Cc2cccc([N+](=O)[O-])c2)c1=O`, the activity change, positive = activation was inconclusive: 14.7% [activator]. With `Nc1ccc(N=Nc2ccccc2)cc1` the Potency was “inactive”. For `Cc1ccc(-c2nc3ccc(C)cn3c2CC(=O)N(C)C)cc1`, the Potency was inconclusive: 14.1 µM [activator, partial curve]. In the case of `C=C1C[C@H]2[C@H]3CCC(=O)[C@@]3(C)CC[C@@H]2[C@@]2(C)C=CC(=O)C=C12`, the Potency was “inactive”. For `O=C(O)CNC(=O)c1c(O)c2ccccc2n(Cc2ccccc2)c1=O`, the Potency was inconclusive: 34.3 µM [activator, single point]. In the case of `CC[C@@H](C(N)=O)N1CCCC1=O`, the Potency was inconclusive: 43.2 µM [activator, partial curve, poor fit]. In the case of `CC1=C2C[C@@H]3[C@@H](CC=C4C[C@@H](O)CC[C@@]43C)[C@@H]2CC[C@]12O[C@H]1C[C@H](C)CN[C@H]1[C@H]2C`, the Potency was “inactive”. In the case of `C=CCC1(C(C)CC)C(=O)NC(=O)NC1=O` (stereo not drawn), the Potency was “inactive”. In the case of `CCOc1ccc(CN(CCc2ccc3c(c2)OCO3)Cc2cc(OC)ccc2O)cc1`, the Potency was inconclusive: 12.6 µM [activator, partial curve]. For `CC(C)c1ccc(OCC(=O)N2CCN(CCc3ccncc3)CC2)cc1`, the Potency was inconclusive: 4.47 µM [activator, partial curve, poor fit]. For `Nc1ccc(Cl)cc1N`, the Potency was inconclusive: 1.58 µM [activator, full curve, poor fit]. With `C[C@H]1O[C@@H](O[C@H]2[C@@H](O)C[C@H](O[C@H]3[C@@H](O)C[C@H](O[C@H]4CC[C@@]5(C)[C@H](CC[C@@H]6[C@@H]5CC[C@]5(C)[C@@H](C7=CC(=O)OC7)CC[C@]65O)C4)O[C@@H]3C)O[C@@H]2C)C[C@H](O)[C@@H]1O` the activity change, positive = activation was inconclusive: -43.7% [activator]. With `Cc1ccc2scc(N3CCN(C)CC3)c(=O)c2c1` the Potency was inconclusive: 10 µM [activator, partial curve]. For `CC(=O)c1ccc(NC(=O)c2sc3nc4c(cc3c2N)N2CCC4CC2)cc1`, the Potency was “inactive”. For `CC(C)[C@]12O[C@@H]1[C@@H]1O[C@]13[C@]1(O[C@H]1C[C@@H]1C4=C(CC[C@@]13C)C(=O)OC4)[C@H]2O`, the activity change, positive = activation was inconclusive: -39.8% [activator]. For `CCOc1ccc(CN(CCc2ccc3c(c2)OCO3)Cc2cccc(Br)c2)cc1`, the Potency was “inactive”. In the case of `CC[C@@H](CO)NC(=O)[C@@H]1C=C2c3cccc4c3c(cn4C)C[C@H]2N(C)C1`, the Potency was inconclusive: 3.16 µM [activator, partial curve, poor fit]. For `Clc1ccc(COC(Cn2ccnc2)c2ccc(Cl)cc2Cl)cc1` (stereo not drawn), the Potency was “inactive”. With `CCNC(=O)CC1N=C(c2ccc(Cl)cc2)c2cc(OC)ccc2-n2c(C)nnc21` (stereo not drawn) the Potency was “inactive”. With `O=C(O)C(=O)c1cn(Cc2ccccc2)c2ccc(-c3ccc(OC(F)(F)F)cc3)cc12` the Potency was “inactive”. With `COc1ccc(OCC(=O)N2CCN(CCc3ccccn3)CC2)cc1` the Potency was inconclusive: 2 µM [activator, partial curve, poor fit]. In the case of `CCOC(=O)CC(SP(=S)(OC)OC)C(=O)OCC` (stereo not drawn), the Potency was “inactive”. With `C[C@@H]1[C@@H](CC(C[C@H]2O[C@@H]3O[C@]4(C)CC[C@@H]5[C@H](C)CC[C@@H]([C@H]2C)[C@@]35OO4)C[S+](=O)([O-])c2ccc(COC(=O)N(C)C)cc2)O[C@@H]2O[C@]3(C)CC[C@H]4[C@H](C)CC[C@@H]1[C@@]24OO3` (stereo partly drawn) the Potency was “inactive”. In the case of `CCN(CC)C(=O)N[C@@H]1C=C2c3cccc4[nH]cc(c34)C[C@@H]2N(C)C1`, the activity change, positive = activation was inconclusive: -18.5% [activator]. With `ClCCCN1CCN(c2cccc(Cl)c2)CC1` the Potency was “inactive”. For `C[C@@H]1O[C@@H](O[C@@H]2C=C3CC[C@@H]4[C@H](CC[C@]5(C)[C@@H](c6ccc(=O)oc6)CC[C@]45O)[C@@]3(C)CC2)[C@H](O)[C@H](O)[C@H]1O`, the activity change, positive = activation was inconclusive: -54.7% [activator]. With `CC(C)N[C@@H]1CCn2c(=O)[nH]c3cccc(c32)[C@@H]1O` the Potency was “inactive”. With `CN1[C@H]2CC(O)C[C@H]1[C@H]1O[C@H]12` (stereo partly drawn) the Potency was “inactive”. With `CCc1c(C(=O)C(N)=O)c2c(OCC(=O)O)cccc2n1Cc1ccccc1` the Potency was “inactive”. With `CNC(=O)N1N=C(c2ccc(N)cc2)c2cc3c(cc2CC1C)OCO3` (stereo not drawn) the Potency was inconclusive: 6.85 µM [activator, partial curve]. In the case of `CC(C)C12CN3CC(C(C)C)(CN(C1)C3c1ccccn1)C2=O` (stereo not drawn), the Potency was inconclusive: 14.1 µM [activator, partial curve]. For `CCOc1ccc(CN(CCc2ccc3c(c2)OCO3)Cc2cccc(OC)c2)cc1`, the Potency was “inactive”. For `CCOP(=S)(OCC)Oc1ccc2c(C)c(Cl)c(=O)oc2c1`, the Potency was inconclusive: 39.8 µM [activator, single point]. For `C[C@]12CC[C@H]3[C@@H](CCC4=CC(=O)CC[C@@H]43)[C@@H]1CC[C@@H]2OC(=O)CCc1ccco1`, the Potency was “inactive”. With `Cc1ccccc1Cn1cccc(C(=O)Nc2nc3ccccc3s2)c1=O` the Potency was “inactive”.
